In PMC12136788:
Some of the results follow.

T1: UNK ZnF1-3 (human, UniProt Q9C0B0 31-174)
T1 sequence: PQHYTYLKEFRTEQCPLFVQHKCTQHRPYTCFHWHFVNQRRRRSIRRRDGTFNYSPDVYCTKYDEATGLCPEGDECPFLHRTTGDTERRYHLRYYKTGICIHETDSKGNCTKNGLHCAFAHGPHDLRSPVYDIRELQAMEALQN

B1: 49771899_49772126_2358_CDS_ENSG00000102531_ENST00000398316|human|control|control (ssRNA)
RNA: GGGAGUUCUACAGUCCGACGAUCACUCAGAGCCUGGACCCUGCAAUAAUAGGUAGUUGCUGGUGAAAGUCCUUUUAUUUCAUAACUGAGACCAGGCCCACAGUAACAUAUCUGCAUACUUCCUUCAACUCCUCCCCACUCCAGCAACAGAGGAUUGAGCAUCA
B2: chr11:120668454:120668455:-_ENSMUSG00000025153_ENSMUST00000055655|mus_mus|FALSE|FALSE (ssRNA)
RNA: GGGAGUUCUACAGUCCGACGAUCUGCAGUUUAAUUGUGGGAUCAGGAGAGCAUCAAGAGCAGCAUUUUUACCAGGUUGGUGUAAAAAUGACACAGUCCAGACACUUCUUCACACUGACAGCUGCAGAAAAGUCAAAACCCAAGCAACAGAGGAUUGAGCAUCA
B3: 94366630_94367488_332_3pUTR_ENSMUSG00000026260_ENSMUST00000027478|mouse|control|control (ssRNA)
RNA: GGGAGUUCUACAGUCCGACGAUCCCUGCUUCUGGGUAGUGCUUCAUGCCUAGUUGCUGUGCGAUCUCCUUUGCGAGCUUGUUUUUCCCAGAGCAUAUGUUCCCAUCUACUGUUAUCACUCGGCUGUACUCAUGCAGCUUUUUGCAACAGAGGAUUGAGCAUCA
B4: chr4:57314706:57314707:+_ENSG00000128050_ENST00000264221|hu_mus|hu_hu_hu_mus_True|38_108 (ssRNA)
RNA: GGGAGUUCUACAGUCCGACGAUCCAGUAUUUCAAAUAUAGCUUGUGUGGCAUGACUCAUGAUGUCCACUUCAGUCUGCCCUAUAACAAGGCCAGCAAAGCAAAAUUUUGCAGCAAUGAGUUGCUCCUCAGACCACUGUGGAUCCAACAGAGGAUUGAGCAUCA
B5: chr17:49239293:49239294:+_ENSG00000239672_ENST00000393196|hu_hu|FALSE|FALSE (ssRNA)
RNA: GGGAGUUCUACAGUCCGACGAUCGAGAACUCACAGCUCCAAGAGCUUCCCUCCAAAUUAUGAUGAAGUUCCUGUAAAUAACUAGAUUUCCUACAGCCUGGUCCUCUGCCCAUGGGAAGGAGGGGAAAUGGAUGUGAAAAGCAACAACAGAGGAUUGAGCAUCA
B6: chr2:179883191:179883192:+_ENSMUSG00000039050_ENSMUST00000040668|mus_mus|FALSE|FALSE (ssRNA)
RNA: GGGAGUUCUACAGUCCGACGAUCGUAGAUGGAACCGUGGAACCUGAAGUCUUGAUUGAGACCUUCUGAAUAAAAUGCGCUAAUAGGAGGGUGGUGACUGACCUGCUCAGAUAUAAAUCUGAACCCUAAGUCUUCCCUGAUCAACAACAGAGGAUUGAGCAUCA
B7: chr19:36967751:36967752:+_ENSMUSG00000024811_ENSMUST00000025729|mus_mus|FALSE|FALSE (ssRNA)
RNA: GGGAGUUCUACAGUCCGACGAUCAAAGUGAUACUUAGGGAUACUUGUACCAUCACUCUCUUCUUAUGGAACACUGAAGACUAAUUACAGACAUGUCAUUAGCAUAUGGAAAUAUAAAAUACACUACUUUUUUUUCCUUUUAGACAACAGAGGAUUGAGCAUCA
B8: chr2:52995849:52995850:-_ENSMUSG00000061136_ENSMUST00000076313|mus_hu|motif|central (ssRNA)
RNA: GGGAGUUCUACAGUCCGACGAUCACAGAGAACAAAAUCUUAUCACCUGUGCCUUCAGACUGUCAAGUAUCUUUCGGGCAACGGAAUCCCAUUUGAUGGGAUCCUGAAAGGUAGACAAAGGAUCACAGUCACUUAAGUUACAUCCAACAGAGGAUUGAGCAUCA
B9: 60623461_60623581_92_5pUTR_ENSMUSG00000026014_ENSMUST00000140485|mouse|control|control (ssRNA)
RNA: GGGAGUUCUACAGUCCGACGAUCGCCUCCAGUCGCCGCCGCCGCCGCCUCUCCAGGGGCGACGCUCCUCUCCCGAACGCUGAGAGCGCCCGCAGCUCCCGCGGCGCGCGCUCGGCGACUGACUGACCGACCCACAGAGCGGGCCAACAGAGGAUUGAGCAUCA
B10: chr12:8945443:8945444:+_ENSMUSG00000020585_ENSMUST00000020909|mus_hu|FALSE|FALSE (ssRNA)
RNA: GGGAGUUCUACAGUCCGACGAUCGAAACAUAUACAAACUAGAAACAUGCAACCAUCAUCUUCCACAGUCAAGUCACAAUGUCAAAUAUUUUUCUUGCCUCUGCAGAUGAAAAGUUCAGAUCUUAUACCCAACUACUUACUCACCAACAGAGGAUUGAGCAUCA
B11: chr6:114281168:114281169:-_ENSG00000196591_ENST00000368632|hu_hu|hu_hu_hu_mus_True|38_108 (ssRNA)
RNA: GGGAGUUCUACAGUCCGACGAUCUUCCAUUUUUCUGUAUAAACCAUAAUUUAGCAGCAAGUUAUGAGUCAUCCGGAUUCUAUGAGGCUUCAUGGGAUGACCCUGUCCAUAAUAAUAAUUGCCAAUAUCACCAUCAUAGUAGUACAACAGAGGAUUGAGCAUCA
B12: chr13:100201205:100201206:-_ENSMUSG00000052727_ENSMUST00000064762|mus_hu|FALSE|FALSE (ssRNA)
RNA: GGGAGUUCUACAGUCCGACGAUCUUCAGUGAUGUGAAGCACGCCUGCACCCACUGUAGGGUGAUCUGGAGACUGUCGACUGAAGUCCAUAGCAAGGGAUUGCUCAGGAGAUUCUUGGCCAAAUUCAAUAGACAUUGAGGACUGCAACAGAGGAUUGAGCAUCA
B13: chr4:48472932:48472933:-_ENSMUSG00000028345_ENSMUST00000030030|mus_hu|motif|central (ssRNA)
RNA: GGGAGUUCUACAGUCCGACGAUCAGUUGACGCAUUUGCCAGGGAGACCAUGAUAUCAGACAGUGUUAAAUUCAGUAAGAGAUGAUCGGUGUUAUUGGAGAGAACUGUGCAAUGCUUGAUGCUUUUAUUUGGCUCUUUCCUUUUCAACAGAGGAUUGAGCAUCA
B14: chr1:66486067:66486068:+_ENSMUSG00000015222_ENSMUST00000077355|mus_mus|FALSE|FALSE (ssRNA)
RNA: GGGAGUUCUACAGUCCGACGAUCUCGUCCAGGUCCCAAGUGUCAAUAACUUAAUUGCGUCUUUCUUCCCAUUUAUACAAAAUAACACUUUAAAAAAUGUGUUUCUUACAUGCUCUUUCCUUCCUGCAAUCAGACUCCUUGAUUCAACAGAGGAUUGAGCAUCA
B15: chr17:74801258:74801259:+_ENSMUSG00000024069_ENSMUST00000024870|mus_hu|motif|central (ssRNA)
RNA: GGGAGUUCUACAGUCCGACGAUCGUUUAUUACACCAAAGAGCAGUAUCUUCCAGGACCUUCGGUCAGCUGCUACAAGUCGGAAUUCCCGUAACAACUUGCCAAAAAAGGAUCUUUGUGGUUUUCGAAAGAGAUGAAUUGUCCCCAACAGAGGAUUGAGCAUCA
B16: chr1:23884524:23884525:-_ENSG00000117318_ENST00000374561|perfect_dup|motif|central (ssRNA)
RNA: GGGAGUUCUACAGUCCGACGAUCUUUAAUAUACAUCGCAUUGUUACAGAAAGUCACCUUCCUGUAAAAAAGGUACAAAACCGGUAUACUCUAUUAUAGAGUUCAUAAAUCAGGGCAACAGAACCUUUCUCCAAGGAGACCAGACAACAGAGGAUUGAGCAUCA
B17: chr3:150285740:150285741:+_ENSG00000144895_ENST00000460851|hu_mus|FALSE|FALSE (ssRNA)
RNA: GGGAGUUCUACAGUCCGACGAUCAGCUUUUUUAUUCCACAGCAUUGUAACCUUAUCAGCUUUAAAGAAGCUUUUAUUGGCCAGUGCUGCCUGAGGUCCGGCAAAGUUGGGAUACUGAUACAGUCGAACAAAUGAGGGGGCACCCAACAGAGGAUUGAGCAUCA
B18: chr19:12019223:12019224:+_ENSMUSG00000046139_ENSMUST00000061618|mus_mus|motif|central (ssRNA)
RNA: GGGAGUUCUACAGUCCGACGAUCUGUGAAGGGAAGGUAGGAAAGGCUCAGUGGAGACAGUCAGUAGAUGGUAGAAGGAAGCGGGGGACUGUCACUGGGGAGCAGCUGGUGGAGCCCGAGGCCACAAAAUGAGAAGAAAUGGAGCAACAGAGGAUUGAGCAUCA
B19: chr16:23109248:23109249:+_ENSMUSG00000022884_ENSMUST00000115341|mus_mus|motif|central (ssRNA)
RNA: GGGAGUUCUACAGUCCGACGAUCAAGAGCCAAAAUUACCUUUUGGAUCUGUUGAGCCAGUUCUCUGGUGGGGGCCAAUACGGGUGCUUGGGUCUCCUUGAACUCAAUCUCCAACUGUUGCAGGAUGGAAAUAGCAAAUGUGGCCAACAGAGGAUUGAGCAUCA
B20: chr12:48538843:48538844:+_ENSG00000152556_ENST00000359794|hu_hu|FALSE|FALSE (ssRNA)
RNA: GGGAGUUCUACAGUCCGACGAUCCUCUUUGAUUUUCCCAGACAUCCAGUUCAUAGCCUUGGCGCCCAUCUUAGUGGCAAAAUUCCUAUCAAAUGGGGUUGGGCUCCCACCCUGCUGCAUGUGACCAAGCACAUUCUUCCUGCUCAACAGAGGAUUGAGCAUCA
B21: 15599485_15605049_2191_CDS_ENSMUSG00000021733_ENSMUST00000057015|mouse|control|control (ssRNA)
RNA: GGGAGUUCUACAGUCCGACGAUCAGAAACAGUAAGGUUGCCCCAGGAAACACUGUAUGCUGUUAUAUUCUUCCUCUUCCACAGUUCUAGAGUUUCGUUGCUAGGGUUAGAUGGCUCAGCACAUACACAUGUGUAACUGGUCAACAACAGAGGAUUGAGCAUCA
B22: chr6:106732989:106732990:-_ENSMUSG00000005362_ENSMUST00000049675|mus_mus|FALSE|FALSE (ssRNA)
RNA: GGGAGUUCUACAGUCCGACGAUCACUGCCGAUUUUAAGGAGCUGAAUUCUCAAUACAUCAUCAAUAGGAAGACAAGCAGCUACUCUGUAAGAAAAGUCUAUUGGAUUUUCAGGAAGAGAAUCAUCUUUGAGAUUUUCAUCCCACAACAGAGGAUUGAGCAUCA

These binders were tested against T1, UNK ZnF1-3 (assay: nsRBNS (natural sequence RNA bind-n-seq); RBNS binding buffer (assumed for nsRBNS): 25 mM Tris pH 7.5, 150 mM KCl, 3 mM MgCl2, 0.01% Triton X-100, 500 ug/ml BSA, 20 U/ml SUPERase-In, 4 C; UNK is unkempt and MSI1 is Musashi-1; names of the RNAs are library labels; protein concentration not given here; high values mean tight binding).

In order of rising binding signal:
1. B3  0.324 enrichment R
2. B9  0.41 enrichment R
3. B7  0.504 enrichment R
4. B8  0.588 enrichment R
5. B20  0.813 enrichment R
6. B22  0.839 enrichment R
7. B21  0.858 enrichment R
8. B15  0.86 enrichment R
9. B4  0.87 enrichment R
10. B16  0.905 enrichment R
11. B11  0.921 enrichment R
12. B13  1.02 enrichment R
13. B17  1.06 enrichment R
14. B12  1.08 enrichment R
15. B14  1.08 enrichment R
16. B1  1.16 enrichment R
17. B10  1.27 enrichment R
18. B6  1.4 enrichment R
19. B5  1.55 enrichment R
20. B19  1.66 enrichment R
21. B2  1.87 enrichment R
22. B18  2.37 enrichment R
